Data taken from PubChem BioAssay AID1240 (Sanford-Burnham Center for Chemical Genomics, 2008).
Out of some 50,000 compounds screened, about 800 (1.6%) showed an effect of 50% or more. The list shows a part of the results.

target: Bcl-2-like protein 10 (Homo sapiens) (UniProt Q9HD36); test: Phenotype converters, Bcl-B/TR3 peptide binding displacement, primary biochemical FP (AID 1240); conditions: GST-Bcl-B / FITC-TR3 peptide fluorescence polarization; stronger effect = higher value; compound at 3.75 mg/L;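 note: 0% = Bcl-B with tracer peptide and DMSO and 100% = tracer peptide lacking Bcl-B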
UniProt Q9HD36, sequence (Q9HD36 whole entry, looked up): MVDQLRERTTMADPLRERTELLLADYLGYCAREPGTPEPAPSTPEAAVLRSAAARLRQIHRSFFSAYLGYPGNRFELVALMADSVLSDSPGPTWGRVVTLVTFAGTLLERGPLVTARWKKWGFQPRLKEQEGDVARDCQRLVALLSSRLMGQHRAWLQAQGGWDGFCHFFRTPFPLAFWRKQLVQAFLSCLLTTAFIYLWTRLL

| Structure (SMILES) | displacement |
| --- | --- |
| O=[N+]([O-])c1cccc(CN2CCN(S(=O)(=O)c3ccccc3)CC2)c1 | 3.2% |
| O=C(NCCC1=CCCCC1)c1ccc(Cl)c([N+](=O)[O-])c1 | -3.7% |
| COc1ccccc1CNC(=O)c1ccc(C)cc1 | -13.5% |
| COc1cc(NC(=O)c2c(Cl)cccc2Cl)c(OC)cc1Cl | 11.4% |
| CCN(CC)S(=O)(=O)c1ccc(NC(=O)c2ccco2)cc1 | -5.1% |
| CC(=O)Nc1ccc(S(=O)(=O)Nc2ccc(S(=O)(=O)N3CCCCC3)cc2)cc1 | -10.6% |
| CC(C)C(=O)Nc1ccccc1C(=O)Nc1ccc(C(=O)O)cc1 | 10.5% |
| COc1ccccc1NC(=O)CSC(N)=O | 6.3% |
| O=C(NC(NC(=S)Nc1ccccc1[N+](=O)[O-])C(Cl)(Cl)Cl)c1ccco1 (stereo not given) | 6.5% |
| COc1ccc(/C=C/C(=O)NC(=S)Nc2ccc(C(C)=O)cc2)cc1 | 7.4% |
| O=C(c1nn2c(c1Cl)NC(c1cccs1)CC2C(F)(F)F)N1CCN(C(c2ccccc2)c2ccccc2)CC1 (stereo not given) | 11.8% |
| CC1=C(C(=O)Nc2ccc(Cl)cc2)C(c2ccccc2)NC(=S)N1 (stereo not given) | 6.5% |
| COc1ccc(OC)c(/C(C)=N\NC(=O)c2cccnc2)c1 | -8.4% |
| O=C(Nc1ccc([N+](=O)[O-])cc1)C1C(c2ccccc2)C1(Cl)Cl (stereo not given) | 4.5% |
| C/C(=N\NC(=O)c1cc(C23CC4CC(CC(C4)C2)C3)[nH]n1)c1ccc(N)cc1 | -8.7% |
| CCc1ccccc1NC(=O)CN(c1ccc(OC)c(Cl)c1)S(C)(=O)=O | 9% |
| COc1ccc(N(CC(=O)Nc2ccccc2Cl)S(C)(=O)=O)cc1 | 3% |
| CCOC(=O)c1c(NC(=O)c2ccc(OC)cc2)sc2c1CCC2 | -1.1% |
| CC1(C)CC(NCCC#N)CC(C)(C)N1 | 3.4% |
| Cc1ccc2nc(SCc3ccc([N+](=O)[O-])cc3)nc(C)c2c1 | -7.5% |
| CN1CCN(C(=O)/C(=C/c2ccc(Cl)cc2)NC(=O)c2ccccc2)CC1 | -6% |
| O=C1S/C(=C\c2ccc(O)cc2)C(=O)N1c1ccc(O)cc1 | 11.8% |

| Structure (SMILES) | displacement |
| --- | --- |
| Cc1cc(C)cc(OCC(=O)NCC(C)CN(C)C)c1 (stereo not given) | -4.2% |
| N/C(Cc1ccc([N+](=O)[O-])cc1)=N\OC(=O)COc1ccc(Br)cc1 | -8.6% |
| O=C(O)c1ccccc1SC1CC(=O)N(c2ccc(F)cc2)C1=O (stereo not given) | 8.3% |
| Cc1[nH][nH]c(=O)c1C(c1ccc(F)cc1)C(C#N)C#N (stereo not given) | -5.4% |
| Cc1no[n+]([O-])c1COc1cccc(/C=C2\SC(=S)NC2=O)c1 | -27.6% |
| CC(C(=O)c1ccc(Cl)cc1)[n+]1cccc(NC(=O)c2ccccc2)c1 (stereo not given) | 4.8% |
| CCCCOc1ccc(NC(=O)c2cccc(Br)c2)cc1 | -3.9% |
| COc1cccc(-n2c(O)c(C(c3ccccn3)c3c(O)n(-c4cccc(OC)c4)c(=O)[nH]c3=O)c(=O)[nH]c2=O)c1 | 67.7% |
| CCOc1ccc(NC(=O)CSc2ccccn2)cc1 | -1.3% |
| O=C1N=c2ccc(I)cc2=C1c1[nH]c(=S)[nH]c1O | 5.9% |
| CS(=O)(=O)N(CC(=O)Nc1ccccc1Br)c1ccc(Oc2ccccc2)cc1 | -1.1% |
| O=[N+]([O-])c1ccc(Cl)c(/C=N/N2CCN(Cc3cccc4ccccc34)CC2)c1 | -15.6% |
| CC1C(=O)CC(c2ccco2)NC1c1ccco1 (stereo not given) | 10.6% |
| Cc1cc(/C=C2/NC(=S)NC2=O)c(C)n1-c1ccc(Br)cc1 | 12.1% |
| CN1CCN(C2=NC(=O)/C(=C/c3ccc(Cl)cc3Cl)S2)CC1 | -7.5% |
| CCN(CC)S(=O)(=O)c1cccc(C(=O)Oc2ccc([N+](=O)[O-])cc2)c1 | -10.3% |
| COCCOC(=O)c1c(C)oc2ccc(OCc3ccccc3Cl)cc12 | 5.4% |
| COCCNC(=O)C(=O)Nc1cc(Cl)ccc1C | -12.6% |
| O=C(O)CCCCCN1C(=O)C(=O)/C(=C(/O)c2ccccc2)C1c1ccccc1Cl (stereo not given) | -7.2% |
| CC(C)C(=O)Nc1cccc(-c2nc3cc(Cl)cc(Cl)c3o2)c1 | 40.5% |
| CC(C)OC(=O)NC(c1ccccc1)C(Cl)(Cl)Cl (stereo not given) | -3.6% |
| COC(=O)CN(c1ccccc1F)S(=O)(=O)c1ccccc1 | -10.9% |

| Structure (SMILES) | displacement |
| --- | --- |
| O=C(Nc1cccc(C(F)(F)F)c1)c1ccc(OC2CSC2)cc1 | -2.2% |
| COc1ccccc1OCC(=O)Nc1ccccc1C(=O)O | -0.4% |
| CCN1C(=O)/C(=C\c2ccc(-c3ccc(C)c(Cl)c3)o2)SC1=S | 10.5% |
| COC(=O)c1cccc(NC(=O)CSCc2ccccc2)c1 | 11% |
| CCCOC(=O)c1ccc(N2C(=O)c3ccccc3C2=O)cc1 | 5.5% |
| O=C(CN1CCCC1)NCC1COc2ccccc2O1 (stereo not given) | -12.7% |
| CCN(CC)c1ccc(NC(=O)Cc2ccccc2)cc1 | 0.6% |
| Cc1ccnc(NC(=O)C2CCCC2)c1 | -7.8% |
| CC1(C)Cc2ccccc2C(=C(C#N)C#N)N1 | -0.9% |
| O=C(NCc1ccc(Cl)c(Cl)c1)c1ccccc1F | -2.2% |
| Cc1cc(OCC(=O)Nc2ccc(Cl)c(-c3nc4ncccc4o3)c2)cc(C)c1Cl | -5.1% |
| CCCNC(=O)CC12CC3CC(C1)CC(CC(=O)NCCC)(C3)C2 | 7.5% |
| O=C(NC1CCCCC1)c1ccc(Br)o1 | -0.6% |
| CCc1ccc(/C=C2/C(=O)NN(c3ccc(C)cc3)C2=O)cc1 | 8.6% |
| CCCCSc1nnc2c(n1)OC(c1ccc(O)cc1)Nc1ccccc1-2 (stereo not given) | 4.2% |
| CCN(CC)c1ccc(/C=N/NC(=O)c2nonc2N)c(OCc2ccc(Cl)cc2Cl)c1 | 3.3% |
| COc1cccc(C2C(C(=O)Nc3ccccc3)=C(C)N=c3s/c(=C\c4ccc(O)cc4)c(=O)n32)c1 (stereo not given) | -6.7% |
| Cc1ccc(C(=O)O)cc1NC(=O)C(c1ccccc1)c1ccccc1 | 1.4% |
| CCOC(=O)Nc1sc2c(c1C(=O)OCC)CCCCCC2 | -9.7% |
| COc1ccc2c(c1C)CCC/C2=N\OC(=O)c1cc(OC)c(OC)c(OC)c1 | 9.4% |
| Cc1nnc(C)n1/N=C/c1ccc(-c2ccccc2)cc1 | -1.5% |
| C[n+]1ccc(/C=C/c2cccc([N+](=O)[O-])c2)cc1 | -8.7% |

| Structure (SMILES) | displacement |
| --- | --- |
| CCCC1=NN(C(=O)c2ccc(Br)cc2)C(O)(C(F)(F)F)C1 (stereo not given) | 4.5% |
| CCCC(=O)Nc1ccc(I)cc1Cl | -4.5% |
| CCOC(=O)c1c(NC(=O)c2ccc([N+](=O)[O-])cc2Cl)sc(C)c1C | 1.9% |
| CC(C)c1ccccc1NC(=O)C(C)N1C(=O)c2ccccc2C1=O (stereo not given) | -7.2% |
| Cc1ccc(-c2nc3ccccc3s2)cc1NC(=O)c1cccc([N+](=O)[O-])c1 | 23.9% |
| CC(=O)C1=C(O)C(=O)N(c2nc3ccccc3s2)C1c1ccc(O)cc1 (stereo not given) | 0.5% |
| COc1ccccc1N1CCN(C(=O)C(Sc2ccccc2)c2ccccc2)CC1 (stereo not given) | -94% |
| Cc1ccc(S(=O)(=O)N2CCC(=O)C(C)C2)cc1 (stereo not given) | 15.2% |
| CCCOc1ccc(C(=O)Nc2scc(-c3ccc(F)cc3)c2C(=O)OC)cc1 | 37% |
| COC(=O)/C(=C\Nc1cccc2ccccc12)[N+](=O)[O-] | 17.3% |
| C/C(=N\OCc1nc2c3c4c(sc3ncn2n1)C(C)(C)NC(C)(C)C4)c1ccc(Br)cc1 | 12.7% |
| Cc1cccc(OCCn2cc(/C=C3/SC(=S)N(C)C3=O)c3ccccc32)c1 | 15.1% |
| CCCCOc1ccc(NC(=O)/C=C/c2ccc(OC)c(OC)c2)cc1 | -1.6% |
| Cc1sc(NC(=O)CCC2CCCCC2)nc1-c1ccccc1 | 0.5% |
| COc1ccc(NC2=C(Cl)C(=O)N(c3cccc(C)c3C)C2=O)cc1 | 8.8% |
| N#CC1(C(=O)Nc2ccc(C(=O)O)cc2)CC2c3ccccc3C1c1ccccc12 (stereo not given) | -4.7% |
| O=[N+]([O-])c1ccc(NCCNCCO)cc1 | 10.9% |
| Cc1sc2nc(-c3ccccc3)[nH]c(=O)c2c1C | -20.2% |
| c1ccc(-c2nc(-c3ccccn3)no2)cc1 | -6.3% |
| CC(=O)c1ccc(NC(=O)COc2ccccc2[N+](=O)[O-])cc1 | -6.2% |
| CCOc1ccccc1NC(=O)C(=O)NCc1ccc2c(c1)OCO2 | -16.2% |
| COc1ccc2nc(SCC(=O)Nc3ccc(C(C)=O)cc3)[nH]c2c1 | 5.4% |

| Structure (SMILES) | displacement |
| --- | --- |
| Cc1ccc(S(=O)(=O)Nc2c(C)cc(O)c(S(=O)(=O)c3ccc(C)cc3)c2C)cc1 | 7.2% |
| CCc1ccc(CN/C=C/C(=O)c2ccc(Br)cc2)cc1 | -10.3% |
| COc1ccc(C(NC(=O)c2ccccc2)c2c(O)ccc3ccccc23)cc1 (stereo not given) | 4.7% |
| COc1cc(-c2ccc(NC(=O)c3ccc(F)cc3)c(OC)c2)ccc1NC(=O)c1ccc(F)cc1 | 1.6% |
| CC1CCN(C(=O)c2ccc(CN(c3ccccc3)S(C)(=O)=O)cc2)CC1 | -2.1% |
| Ic1ccc(Nc2nc3nonc3nc2N2CCOCC2)cc1 | -2.4% |
| Cc1ccccc1OCc1nc(-c2ccc([N+](=O)[O-])cc2)no1 | 6.5% |
| COc1ccccc1Cc1noc(COc2ccc(Cl)cc2)n1 | 2.2% |
| O=C(NCCc1ccccc1)c1cc2nc(-c3ccc([N+](=O)[O-])cc3)cc(C(F)(F)F)n2n1 | 12.7% |
| CCOc1ccc(-c2cc(OCC)c3c(C)oc(C)c3c(=[O+]CC)c2)cc1 | 2.4% |
| Cc1ccc(N=Cc2ccc(O)cc2O)c(C)c1 | 2.7% |
| CC1=C(C(=O)OCC(C)C)C(c2ccc(OCc3ccccc3)cc2)C2=C(CCCC2=O)N1 (stereo not given) | -3.4% |
| Cc1cc(Br)cc(C)c1NC(=O)COc1ccccc1 | 12.4% |
| CCCOC(=O)c1c(-c2ccccc2)csc1N | 1.2% |
| COC(=O)c1ccc(NC(=O)CSC(N)=O)cc1 | 0.6% |
| Cc1cc(C(=O)N/N=C/c2ccc(-c3cccc(C(=O)O)c3)o2)n[nH]1 | -13.4% |
| Cc1ccnc(Nc2nc(-c3ccc(Br)cc3)cs2)c1 | 14.5% |
| CCC12CN3CC(CC)(CN(C1)C3c1ccc(OC)cc1)C2=O (stereo not given) | 2.9% |
| C/C(Cn1nnc([N+](=O)[O-])n1)=N\NC(=O)c1cccc(Cl)c1 | -5.7% |
| COc1ccc(OC)c(NC(=O)CN(c2ccccc2)S(=O)(=O)c2ccccc2[N+](=O)[O-])c1 | 10.6% |
| O=C(O)c1ccc(CP(=O)(c2ccccc2)c2ccccc2)cc1 | 4.9% |
| Cc1cc(C)c([N+](=O)[O-])cc1-c1ccc(/C=c2\sc3nc4ccccc4n3c2=O)o1 | 14.6% |
